Experimental data taken from PubChem BioAssay AID1460 (National Center for Advancing Translational Sciences (NCATS), 2008).
Out of some 270,000 compounds screened, about 5,800 (2.1%) were called active. Inconclusive results, whose numbers are uncertain, are shown with a selection of clear calls. Calls follow the shape of the dose curve; as a rule, active = well fitted inhibition curve with a large enough effect; inconclusive = small, poorly fitted or top-dose-only effect; inactive = flat fitted curve, though single readings scatter. Where the call is inconclusive, the potency comes from a doubtful curve fit.

These compounds were tested against Microtubule-associated protein tau (Homo sapiens) (UniProt P10636) (assay: qHTS for Inhibitors of Tau Fibril Formation, Thioflavin T Binding). Conditions: recombinant tau K18 P301L (four-repeat tau fragment), heparin-induced fibrillization, ThT fluorescence; series mostly up to 57.4 µM.
Chain of UniProt P10636 (P10636 whole entry, looked up, the tested form may be a part): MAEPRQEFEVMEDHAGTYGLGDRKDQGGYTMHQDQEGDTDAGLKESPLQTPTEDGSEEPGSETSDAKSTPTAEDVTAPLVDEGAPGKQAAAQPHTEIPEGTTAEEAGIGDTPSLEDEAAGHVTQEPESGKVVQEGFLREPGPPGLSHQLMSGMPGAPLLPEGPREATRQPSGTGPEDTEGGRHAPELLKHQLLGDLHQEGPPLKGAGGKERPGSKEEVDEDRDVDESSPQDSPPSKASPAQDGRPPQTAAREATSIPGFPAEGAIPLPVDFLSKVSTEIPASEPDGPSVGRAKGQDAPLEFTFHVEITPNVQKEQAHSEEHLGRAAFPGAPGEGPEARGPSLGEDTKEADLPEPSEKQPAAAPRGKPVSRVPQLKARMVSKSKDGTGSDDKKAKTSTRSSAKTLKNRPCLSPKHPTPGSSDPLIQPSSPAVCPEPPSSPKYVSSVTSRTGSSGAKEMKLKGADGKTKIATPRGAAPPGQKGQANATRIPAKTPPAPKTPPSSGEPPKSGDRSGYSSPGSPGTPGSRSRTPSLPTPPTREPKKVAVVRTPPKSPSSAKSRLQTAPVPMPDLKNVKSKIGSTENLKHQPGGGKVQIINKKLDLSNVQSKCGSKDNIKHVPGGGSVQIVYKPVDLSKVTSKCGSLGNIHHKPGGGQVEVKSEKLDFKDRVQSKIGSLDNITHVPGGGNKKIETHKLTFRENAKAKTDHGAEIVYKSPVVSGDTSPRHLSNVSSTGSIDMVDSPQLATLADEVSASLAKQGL
Procedure, shortened: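 In this qHTS, human K18 P301L tau is incubated with compound and heparin for 6 hr at 37 C, and Thioflavin T fluorescence then reports fibril load.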
Also: nearly all actives have a fitted effect of over 55% in size.
Potency is read from the fitted curve at half-maximal effect; tags tell the direction and shape of the fitted curve.

Compound | Potency
CCOC(=O)c1ccc(NC(=O)N2CC3CCCN3c3ccccc32)cc1 (stereo not given) | inconclusive: 14.1 µM [inhibitor, partial curve]
COc1ccc(-n2c(C)c3c(OC)cccc(=O)c3c2C)cc1 | active: 17.8 µM
COc1ccccc1NC(=O)CSc1cn(CC(=O)N2CCCC2)c2ccccc12 | inconclusive: 10 µM [inhibitor, partial curve]
COC(=O)C(Cc1ccc(O)cc1)NC(=O)c1ccccc1 (stereo not given) | inactive
CC(NC(=O)CSC1=NCCS1)c1ccccc1 (stereo not given) | inactive
CC(C)(C)C1CCc2c(sc(NC(=O)c3noc4c3CCCC4)c2C#N)C1 (stereo not given) | inconclusive: 35.5 µM [inhibitor, single point]
COc1ccc(Nc2cc(Cl)nc(N)n2)cc1OC | inconclusive: 28.2 µM [inhibitor, partial curve]
C=C(C)COc1ccc(-c2[nH]ncc2Oc2ccccc2OCC)c(O)c1 | inconclusive: 31.6 µM [inhibitor, single point]
CCOCCCNC(=O)c1ccc2c(=O)n(CCCOCC)c(=S)[nH]c2c1 | inconclusive: 5.01 µM [inhibitor, full curve, poor fit]
CCOC(=O)N1CCN(Cc2nc3cc(NC(=O)c4ccccc4Cl)ccc3n2C(C)C)CC1 | inactive
CC1CCCCN1C(=O)c1ccc2c(c1)N(Cc1ccc(F)cc1)C(=O)c1ccccc1S2(=O)=O (stereo not given) | inactive
CCCN(CCC)C(=O)COc1cc(=O)n(CC)c2ccccc12 | inactive
COc1cccc(-c2nc3c(C#N)c[nH]n3c2NC2CCCC2)c1OC | inconclusive: 39.8 µM [inhibitor, single point]
COc1cc2nc(NC(=O)c3ccc(S(=O)(=O)N4CCc5ccccc54)cc3)sc2cc1OC | inconclusive: 8.91 µM [inhibitor, full curve]
COc1ccc(C(=O)CSc2cc(C)nc3nc(C)nn23)cc1OC | inconclusive: 39.8 µM [inhibitor, partial curve]
CC(/C=C1\SC(=S)N(C(C(=O)O)c2ccccc2)C1=O)=C\c1ccccc1 (stereo not given) | active: 31.6 µM
Cc1ccc2[nH]c(=O)c(CN(Cc3ccccc3)C(=S)NCCCN(C)C)cc2c1 | inconclusive: 8.91 µM [inhibitor, single point]
Cc1ccc2onc(CC(=O)O)c2c1 | inconclusive: 0.562 µM [inhibitor, single point]
N#C/C(=C/c1ccc2c(c1)OCO2)C(=O)Nc1ccc(O)cc1 | inconclusive: 4.47 µM [inhibitor, single point]
CCC(C)(C)n1nnnc1CN1CCC(NC(=O)c2ccc(Br)cc2)CC1 | inactive
